# Measured values from PubChem BioAssay AID686979 (National Center for Advancing Translational Sciences (NCATS), 2013).
# About 50,000 (12%) of roughly 420,000 compounds were called active. This list was built around the results that the source calls inconclusive (neither active nor inactive); the mix of calls is not that of the screen. The call rests on the fitted dose curve; in most records, active means well fitted inhibition curve with a large enough effect; inconclusive means small, poorly fitted or top-dose-only effect; inactive means flat fitted curve, though single readings scatter. No potency is given beside an inconclusive call; the fits are too rough.
# Assay: qHTS for Inhibitors of human tyrosyl-DNA phosphodiesterase 1 (TDP1): qHTS in cells in presence of CPT; further: nearly all actives have a fitted effect of over 55% in size
# Details: chicken DT40 Tdp1-/-;hTDP1 cells + 20 nM CPT, ATP luminescence, 48 h; activity change, negative = growth inhibition: at 46.2 µM (top of the series)
# Method in brief: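 Chicken DT40 Tdp1-/- cells complemented with human TDP1, 400 cells/well, exposed to compounds plus 20 nM camptothecin for at least 48 h at 37 C; viability read as ATP content by CellTiter-Glo luminescence.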
# On the % scale 0 is the no-effect control and ±100 the full control effect; potency means the concentration at half of the fitted maximal effect; tags describe the fitted curve by direction and shape.
Compound,Potency,"activity change, negative = growth inhibition"
O=C(NCc1cccc(Br)c1)c1cc(-c2ccccc2)nn1CC1CC(c2cccnc2)=NO1 (stereo unspecified),"inconclusive [inhibitor, single point]",–
CSc1ccc(NC(=O)Nc2cccn(Cc3ccccc3F)c2=O)cc1,"inconclusive [inhibitor, single point]",–
Cc1cc(S(=O)(=O)Nc2ccc3ccccc3c2)c(C)s1,active: 10 µM,–
CCCn1nnc(NC(=O)c2ccc3ccccc3c2)n1,–,inconclusive: -5.09% [inhibitor]
O=C(c1ccccc1)N1CCN(CC(O)COc2cccc3ccccc23)CC1 (stereo unspecified),"inconclusive [inhibitor, single point]",–
Cc1ccc(/C(N)=N/OC(=O)COc2cccc3ccccc23)cc1,"inconclusive [inhibitor, single point]",–
CCCn1nc(NC(=O)COC)c2cc3cccc(C)c3nc21,"inconclusive [inhibitor, single point]",–
CC1=NNC(=O)/C1=C\c1cn(-c2ccccc2)nc1-c1ccc(Cl)cc1,active: 5.17 µM,–
O=S(=O)(c1ccc(S(=O)(=O)N2CCC(O)CC2)cc1)N1CCCC1,inactive,–
CC(C)OC(=O)c1c(NC(=O)c2cccc(C(F)(F)F)c2)sc2c1CCCC2,inactive,–
CC1=NCCN1S(=O)(=O)c1cc([N+](=O)[O-])ccc1Cl,inactive,–
O=[N+]([O-])c1cc(Oc2cccnc2)cc([N+](=O)[O-])c1,"inconclusive [inhibitor, partial curve]",–
O=c1oc2ccccc2c(N2CCCCC2)c1CN1CCCCC1,inactive,–
O=C(O)c1ccccc1C(=O)N1N=C2/C(=C/c3cccc([N+](=O)[O-])c3)CCCC2C1c1cccc([N+](=O)[O-])c1 (stereo unspecified),inactive,–
COc1cccc(CNC(=O)c2sc3nc[nH]c(=O)c3c2C)c1,"inconclusive [inhibitor, partial curve]",–
CCn1c(SCC(=O)N/N=C/c2ccncc2)nc2ccccc21,"inconclusive [inhibitor, single point]",–
CCc1ccccc1Nc1cc(C(=O)NCc2ccccn2)c2ccccc2n1,"inconclusive [inhibitor, partial curve, poor fit]",–
CN(Cc1nc2ccccc2c(=O)[nH]1)Cc1nc2ccsc2c(=O)[nH]1,active: 0.517 µM,–
COc1ccc(NC(=O)Cn2ccn(-c3ccc(F)c(F)c3)c(=O)c2=O)cc1Cl,inactive,–
N=c1ccn(Cc2ccccc2Cl)cc1,active: 5.17 µM,–
O=C(O)C1CN(c2ncccc2[N+](=O)[O-])C1,"inconclusive [inhibitor, single point]",–
c1ccc(CNc2ncnc3nc(N4CCOCC4)[nH]c23)cc1,–,inconclusive: -30.5% [inhibitor]
N#C/C(=C\c1ccco1)Sc1nc2ccccc2s1,inactive,–
COc1ccc(CNCCc2ccc([N+](=O)[O-])cc2)c(OC)c1OC,active: 6.51 µM,–

Compound,Potency,"activity change, negative = growth inhibition"
NC(=O)c1nsc(C(=O)N(CC(=O)NCc2ccc(F)cc2)Cc2ccco2)c1N,"inconclusive [inhibitor, single point]",–
C1CCC(C23CC4CC(CC(C4)C2)C3)NC1 (stereo unspecified),inactive,–
O=C(O)CCCCCNc1ncnc2ccc(Br)cc12,"inconclusive [inhibitor, single point]",–
COc1ccc(-c2sc3ccc(OC)cc3c2C#CCCO)cc1,"inconclusive [inhibitor, single point]",–
O=C(Nc1nnc(C2=COCCO2)o1)c1ccc(Cl)cc1,active: 16.4 µM,–
COc1ccc(C(=O)Oc2c(Sc3ccccc3)c(C)nn2-c2ccccc2)c(OC)c1,active: 18.4 µM,–
COc1ccc(-c2csc(NC(=S)NC(=O)c3ccc(S(=O)(=O)N(C)C)cc3)n2)cc1OC,"inconclusive [inhibitor, partial curve]",–
COc1ccc(C)c2sc(NC(=O)c3ccc(S(=O)(=O)N4CCOCC4)cc3)nc12,"inconclusive [inhibitor, single point]",–
Cc1ccc(NC(=O)c2ccc(Cn3cc(Br)cn3)o2)cc1,"inconclusive [inhibitor, partial curve]",–
CC1([N+](=O)[O-])COC(c2cccc3ccccc23)OC1 (stereo unspecified),inactive,–
CS(=O)(=O)Nc1ccccc1C(=O)c1ccccc1,"inconclusive [inhibitor, single point]",–
Cc1ccc2c(C)c(C(=O)N3CCN(Cc4ccccn4)CC3)oc2c1C,"inconclusive [inhibitor, single point]",–
O=C(CSc1nc(-c2ccccc2)c(-c2ccccc2)o1)NCCCO,inactive,–
CC(=O)c1cccc(NC(=O)c2ccc(-n3cncn3)c3ccoc23)c1,"inconclusive [inhibitor, partial curve, poor fit]",–
S=C(NCCCN1CCOCC1)N1CCN(c2nc(-c3ccc(Cl)cc3)cs2)CC1,active: 7.31 µM,–
O=C(N/N=C/c1ccccn1)c1cc(-c2ccc(Cl)cc2)nc2ccccc12,active: 3.26 µM,–
COc1ccc2oc(=Nc3ccccc3)c(-c3nc4ccccc4[nH]3)cc2c1,active: 10.3 µM,–
CCC(C(=O)Nc1ccccc1N1CCCC1)c1ccccc1 (stereo unspecified),"inconclusive [inhibitor, single point]",–
O=C(Nc1ccc(-c2nc3c(ccc4ccccc43)o2)cc1)c1ccco1,"inconclusive [inhibitor, single point]",–
COc1cc(OC)cc(C(=O)NCCNc2nc3cc(C)cc(C)c3cc2C#N)c1,"inconclusive [inhibitor, single point]",–
O=C1c2[nH]c3ccccc3c2CC1N1C(=O)c2ccccc2C1=O (stereo unspecified),inactive,–
CCOC(=O)c1c(S(=O)(=O)N2CCCCCC2)c(C)n(C)c1C,"inconclusive [inhibitor, single point]",–
N#C/C(=C/c1ccc(Sc2nc3ccccc3[nH]2)o1)c1ccccc1F,active: 20.6 µM,–
Cc1ccc(NCc2nnc(SCCN3CCCCC3)n2CC2CCCO2)c(C)c1 (stereo unspecified),inactive,–

Compound,Potency,"activity change, negative = growth inhibition"
O=C(Cc1cccs1)Nc1nnc(Cc2ccccc2)s1,"inconclusive [inhibitor, single point]",–
CC[C@@](C)(NS(=O)(=O)OCC(Cl)(Cl)Cl)c1ccccc1,inactive,–
O=C(Nc1ccc(Cl)cc1)c1csc([C@@H]2C[C@H](O)[C@@H](CO)O2)n1,"inconclusive [inhibitor, partial curve, poor fit]",–
CCN(CC(=O)NCc1ccc(F)cc1)C(=O)c1cccc(S(=O)(=O)N(C)c2ccc(OC)cc2)c1,"inconclusive [inhibitor, single point]",–
CC(=O)c1ccc(OC2OCCOC2Oc2ccc(C(C)=O)cc2)cc1 (stereo unspecified),"inconclusive [inhibitor, single point]",–
CCOc1ccc(Oc2ccc(Cl)cc2NC(=O)C2=COCCO2)cc1,"inconclusive [inhibitor, single point]",–
c1ccc(-c2cc3ccccc3[nH]2)cc1,inactive,–
CCCCCOc1ccc(/C=c2\sc3nc(=O)c(-c4ccccc4)nn3c2=O)cc1OC,"inconclusive [inhibitor, single point]",–
Nc1[nH]c(=O)nc(Nc2ccccc2)c1N=O,"inconclusive [inhibitor, single point]",–
COc1cc(/C=C(\CC(=O)O)c2nc3ccccc3s2)cc(OC)c1O,inactive,–
CC(C)(C)c1ccc(C(=O)NCC(c2ccco2)S(=O)(=O)c2ccccc2)cc1 (stereo unspecified),active: 18.4 µM,–
COc1ccccc1CCN1CCCC(CN(C)CC(C)(C)CO)C1 (stereo unspecified),inactive,–
CCc1ccc(N2C=C(C(=O)OC)C(c3ccc(OC)cc3)C(C#N)=C2N)cc1 (stereo unspecified),"inconclusive [inhibitor, single point]",–
COc1ccc([C@H]2N[C@]3(CCCN(Cc4ccc(C(F)(F)F)cc4)C3=O)[C@H]3C(=O)N(C)C(=O)[C@@H]23)cc1,"inconclusive [inhibitor, single point]",–
O=[N+]([O-])c1ccc(-n2nnnc2-c2ccccc2)cc1,"inconclusive [inhibitor, single point]",–
CCN(CC)S(=O)(=O)c1ccc2c(c1)N(CC(=O)Nc1ccc(Cl)cc1)C(=O)C1CCCN21 (stereo unspecified),"inconclusive [inhibitor, single point]",–
CC1=CN2C(c3cccc([N+](=O)[O-])c3)=NON(c3ccc(C)cn3)C2C=C1 (stereo unspecified),"inconclusive [inhibitor, partial curve, poor fit]",–
O=C(CN(Cc1ccc(Br)cc1)S(=O)(=O)c1ccccc1)NCc1cccnc1,"inconclusive [inhibitor, single point]",–
CCc1nc2ccc(C(=O)Nc3ccc4c(c3)OCC(=O)N4)cn2c1N(C)C(=O)C1CCCCC1,"inconclusive [inhibitor, single point]",–
O=C(Nc1ccccc1)NC1CCCc2ccccc21 (stereo unspecified),"inconclusive [inhibitor, full curve, poor fit]",–
Cc1cc(NCc2ccncc2)ccc1Br,"inconclusive [inhibitor, single point]",–
CCCCCOc1ccc(NC(=O)Cn2c(-c3nonc3N)nc3ccccc32)cc1,"inconclusive [inhibitor, single point]",–
CSc1ccc(CNC(=O)C2Cc3cc(S(=O)(=O)N4CCCCC4)ccc3N2C(C)=O)cc1 (stereo unspecified),"inconclusive [inhibitor, single point]",–
